Laboratory results from PubChem BioAssay AID686979 (National Center for Advancing Translational Sciences (NCATS), 2013).
Out of some 420,000 compounds screened, about 50,000 (12%) were called active. The inconclusive results got no clear call from the source; some entries with a clear call stand among them for comparison. Calls follow the shape of the dose curve; as a rule, active = well fitted inhibition curve with a large enough effect; inconclusive = small, poorly fitted or top-dose-only effect; inactive = flat fitted curve, though single readings scatter. No potency is given beside an inconclusive call; the fits are too rough. More than one record can exist for a structure, and the calls need not agree.

Test: qHTS for Inhibitors of human tyrosyl-DNA phosphodiesterase 1 (TDP1): qHTS in cells in presence of CPT; also: nearly all actives have a fitted effect of over 55% in size
Conditions: chicken DT40 Tdp1-/-;hTDP1 cells + 20 nM CPT, ATP luminescence, 48 h; activity change, negative = growth inhibition: at 46.2 µM (top of the series)
In short: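 Cell growth measured by CellTiter-Glo luminescence after a minimum 48 h, 37 C compound exposure with 20 nM CPT in Tdp1-knockout DT40 cells stably expressing hTDP1, seeded 400/well; qHTS titration format.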
% is scaled to controls: 0 for no effect and ±100 for the full control effect; potency is read from the fitted curve at half-maximal effect; tags tell the direction and shape of the fitted curve.

SMILES	Potency	activity change, negative = growth inhibition
O=C(c1ccc(F)cc1)n1c(=S)nc2ccccn21	inconclusive [inhibitor, single point]	
Oc1c(Br)cc2oc3c(c2c1CNCc1ccccc1)CCCC3	inconclusive [inhibitor, single point]	
Cc1ccc(N(C)C(=O)c2cnc(N3CCOCC3)c3ccccc23)cc1C	active: 23.1 µM	
CCCC(CCC)C(=O)Nc1ccc2c(c1)N(C(=O)CCN1CCN(C)CC1)c1ccccc1CC2	inconclusive [inhibitor, single point]	
CC(C)Nc1ncnc2c1ncn2[C@H]1CN(Cc2ccc(Cl)cc2)C[C@@H](CO)O1	inconclusive [inhibitor, single point]	
CCCc1ccc(OCC(O)CN2CCN(c3ccccn3)CC2)cc1 (stereo unspecified)	inconclusive [inhibitor, single point]	
COc1ccc(-n2cnnc2SCC(=O)c2cc(C)n(Cc3cccs3)c2C)cc1	inactive	
CC(C)Cn1[nH]c2c3c(ccc2c1=O)C(=O)c1ccccc1C3=O	active: 23.1 µM	
CC1(Cc2ccc(S(C)(=O)=O)cc2)C(=O)Nc2ccc(Cl)cc21 (stereo unspecified)	inactive	
COc1ccc(-c2ccc(CN3C(CC(C)C)C(=O)N(Cc4cn(Cc5ccco5)nn4)CCS3(=O)=O)cc2)cc1OC (stereo unspecified)	inconclusive [inhibitor, single point]	
COc1cc(/C=N/NC(=O)COc2cc(C)cc(C)c2)ccc1OS(=O)(=O)c1ccc(C)cc1	active: 16.4 µM	
COC(=O)c1sccc1NC(=O)c1cc(-c2ccc(C)cc2)nc2ccccc12	inconclusive [inhibitor, partial curve, poor fit]	
COc1ccc(N(C(=O)c2snc(C(N)=O)c2N)C(C(=O)NCc2ccccc2)c2ccc(F)cc2)c(OC)c1 (stereo unspecified)	active: 25.9 µM	
CSc1nc2sc3c(c2c(=O)n1-c1ccc(F)c(Cl)c1)CCN(C(C)=O)C3	inactive	
O=C1CN(C(=O)c2ccc(Br)o2)C(c2ccccc2)c2cc(Br)ccc2N1 (stereo unspecified)	active: 16.4 µM	
CCc1ccc(-n2nc(C)c3c(C(=O)Nc4cc(OC)cc(OC)c4)cc(C)nc32)cc1	inconclusive [inhibitor, single point]	
CC(c1ccco1)N(C(=O)c1ccc(F)cc1)c1ccccn1 (stereo unspecified)	inactive	
CCN(CC(=O)Nc1cc(Cl)ccc1C)C(=O)COc1cccc2c1OC(C)(C)C2	inconclusive [inhibitor, partial curve, poor fit]	
Cc1c(C(=O)NCc2cccc(Cl)c2)sc(=O)n1Cc1ccc(F)cc1	inconclusive [inhibitor, single point]	
COC(=O)c1cc(C#N)c(NCc2ccc(Cl)cc2Cl)nc1C		inconclusive: -35.2% [inhibitor]
CC1CN(C(=O)CCC(=O)NC2CCN(Cc3ccccc3)CC2)c2ccccc2O1 (stereo unspecified)	active: 23.1 µM	
CCN(CC)S(=O)(=O)c1cccc(-c2nn(-c3ccccc3)cc2/C=C(\C#N)C(=O)NCc2ccco2)c1	inconclusive [inhibitor, partial curve]	
Cc1ccccc1CN(C)CC(=O)NC(C)CCc1ccccc1 (stereo unspecified)	inconclusive [inhibitor, single point]	
CC(SCC(=O)Nc1ccc(S(=O)(=O)N2CCCCC2)cc1)C(=O)O (stereo unspecified)	inactive	

SMILES	Potency	activity change, negative = growth inhibition
Cc1cc(C)c(OCCCCN2CCC(C)CC2)c(Br)c1	inconclusive [inhibitor, single point]	
Cc1cc(C(=O)Nn2c(-c3ccc(Br)cc3)nc3ccccc3c2=O)ccc1[N+](=O)[O-]	active: 29.1 µM	
CC(C)(C)NCC(O)COc1c(F)cc(Br)cc1F (stereo unspecified)	inactive	
CC(NC(=O)c1cc2cc(Cl)ccc2oc1=N)c1ccccc1 (stereo unspecified)	inconclusive [inhibitor, single point]	
COc1ccc(S(=O)(=O)NCCc2csc(-c3ccc(F)cc3)n2)cc1	active: 11.6 µM	
CCC(C(=O)NC1CCCC1)N(Cc1ccc2c(c1)OCO2)C(=O)c1snc(C(N)=O)c1N (stereo unspecified)	inconclusive [inhibitor, single point]	
O=C(C[N+]12CCCc3cccc(c31)CCC2)c1ccc2ccccc2c1	active: 5.01 µM	
Cc1ccc(C(O)c2ncc(-c3ccccc3C)[nH]2)cc1F (stereo unspecified)	inconclusive [inhibitor, single point]	
O=C(CSC1=Nc2ccccc2C2=NC(Cc3ccccc3)C(=O)N12)Nc1ccccc1F (stereo unspecified)	active: 23.1 µM	
Cc1ccc(C(=O)NCc2cccnc2)cc1S(=O)(=O)Nc1ccccc1	inactive	
CN(C(=O)CSc1nc(C2CC2)nc2ccccc12)c1nc(-c2ccccc2)cs1	inconclusive [inhibitor, single point]	
CCc1nnc(NC(=O)C(NS(=O)(=O)c2ccccc2)C(C)C)s1 (stereo unspecified)	inactive	
COc1ccc(C(=O)N(Cc2ccccc2)Cc2cc3cc4c(cc3[nH]c2=O)OCCO4)cc1	active: 11.2 µM	
CC(C)Cn1cnc2c(Sc3c([N+](=O)[O-])ncn3C)nc(N)nc21	inconclusive [inhibitor, single point]	
Cn1c(=O)[nH]c(=O)c2c1nc(N1CCCC1)n2CCCSc1nc2ccccc2o1	active: 23.1 µM	
Cc1cccc(C(=O)N[C@H](C(=O)OCC(=O)NC(=O)c2cccn2C)C(C)C)c1	inactive	
CC(C)(C)OC(=O)N1CCC[C@H]1c1nnc(SC/C=C/c2ccccc2)o1	inconclusive [inhibitor, single point]	
O=C(/C=C/c1ccco1)Nc1ccc(Cl)c(S(=O)(=O)N2CCOCC2)c1	inconclusive [inhibitor, single point]	
COc1ccc(C2CC(c3ccc(C)cc3)Nc3ncnn32)cc1 (stereo unspecified)	inconclusive [inhibitor, partial curve]	
Cc1ccc(NC(=S)NCc2ccco2)c(C)c1	inconclusive [inhibitor, partial curve]	
Cc1ccc(C=NNc2ccc([N+](=O)[O-])cn2)cc1	inconclusive [inhibitor, single point]	
Cc1ccc(-n2[nH]c(C)c(C=Nc3ccc4[nH]c(=O)[nH]c4c3)c2=O)cc1C	inconclusive [inhibitor, single point]	
Cc1ccccc1S(=O)(=O)/N=C(/c1ccccc1)N1CCOCC1	inconclusive [inhibitor, single point]	
CC(=O)c1ccc(C(=O)N2CCCC(N3CCN(c4ccc(F)cc4)CC3)C2)s1 (stereo unspecified)	inconclusive [inhibitor, single point]	

SMILES	Potency	activity change, negative = growth inhibition
COc1cc(OC)cc(C(=O)NC2CCN(C(=O)N3c4ccccc4Sc4ccccc43)CC2)c1	active: 29.1 µM	
O=C(c1cccc(-n2cccc2)c1)N1CCN(S(=O)(=O)c2ccccc2)CC1	inactive	
CCCN(C(=O)CSc1nc2c(cnn2-c2ccccc2)c(=O)[nH]1)C1CCS(=O)(=O)C1 (stereo unspecified)	inconclusive [inhibitor, single point]	
CCOC(=O)c1sc(NC(=O)c2ccccc2F)c(C(N)=O)c1C	inconclusive [inhibitor, single point]	
O=C(O)c1ccc(S(=O)(=O)/N=C2\C=C(Nc3ccccc3F)C(=O)c3ccccc32)cc1	inactive	
N#CC(C#N)=C1C=CC=CN1/C(=C\c1ccco1)C(=O)c1ccc(-c2ccccc2)cc1	active: 0.92 µM	
O=S(=O)(NCCc1csc(-c2cccnc2)n1)c1ccc(F)cc1	inactive	
CCCCOC(=O)C(C)Nc1n[nH]c(=S)[nH]c1=O (stereo unspecified)	inactive	
COc1ccc(C(C#N)C2(C)OCCO2)cc1OC (stereo unspecified)	inactive	
CCN1CCC[C@H]1CNC(=O)c1c(OC)ccc(Br)c1OC	active: 33.5 µM	
Cc1ccccc1NC(=O)CSC1=Nc2ccccc2C2=NC(CCC(=O)NCc3ccccc3)C(=O)N12 (stereo unspecified)	inactive	
O=C(NC1CCCc2ccccc21)C1CCN(c2c3c(nc4ncnn24)CCC3)CC1 (stereo unspecified)	inconclusive [inhibitor, single point]	
Cc1nn(CC(=O)NCc2ccccc2Cl)c(=O)c2nn(-c3ccccc3)c(C)c12	inconclusive [inhibitor, single point]	
OCCNc1nc(Nc2ccc(Cl)c(Cl)c2)nc2ccccc12	active: 18.4 µM	
CCC(CC)C(=O)N(C)c1c(C)nc2c(OCc3cccc(OC)c3)cccn12	inconclusive [inhibitor, single point]	
COc1ccccc1COCC(O)CN1CCCCC1CO (stereo unspecified)	inactive	
COc1ccc(C(=O)Nc2ccc3nc(SCC(=O)N4CCCc5ccccc54)sc3c2)cc1	active: 9.2 µM	
COC(=O)c1sccc1S(=O)(=O)N(CC(=O)NCc1ccc(C)cc1)c1ccc(Cl)cc1	inconclusive [inhibitor, single point]	
Fc1cccc(/C=N/Nc2ccc(Cl)nn2)c1	inactive	
O=C(c1ccc2nccnc2c1)N1CCN(c2cccc(C(F)(F)F)c2)CC1	inconclusive [inhibitor, partial curve, poor fit]	
COc1ccc(-c2csc(NC(=O)C3CCN(c4ncnc5sc(C)c(C)c45)CC3)n2)cc1OC	active: 2.91 µM	
C=CCc1c(C)nc(-c2ccccc2)nc1N/N=C/c1ccncc1	inconclusive [inhibitor, single point]	
Cc1occc1C(=O)N/N=C/C1=C(N2CCOCC2)C(=C\c2ccc(Cl)cc2)/CC1	inconclusive [inhibitor, full curve, poor fit]	
